According to a collection of fitness landscapes (doi:10.1038/s41467-024-54723-y):
Whole data set: some 18,000 sequences, median “TetR repression strength (sort-seq, GFP reporter)” near 0.23, cut for the highest 2% near 0.68. This is one part of the list.

The sequences below were run against TetR (class B, Tn10) (UniProt P04483) (assay: TetR repression strength (sort-seq, GFP reporter) (relative to tetO2 = 1); higher = stronger repression). Details: E. coli.
Summary of the method: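 Escherichia coli SIG10-MAX cells carried a low-copy plasmid library in which eight operator positions were randomized between a constitutive promoter and sfGFP, and TetR was expressed constitutively. After 5 h of growth at 37 °C in LB with 50 µg/mL chloramphenicol, 10^6 cells were FACS-sorted into 13 fluorescence bins, and each bin was Illumina-sequenced. Repression strength was the top bin index plus one minus the read-weighted mean bin, divided by the value for the unaltered operator. Across three independent transformations, only library members with ≥30 reads in every replicate and a CV ≤0.5 were averaged.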

Sequence of UniProt P04483 (P04483 whole entry): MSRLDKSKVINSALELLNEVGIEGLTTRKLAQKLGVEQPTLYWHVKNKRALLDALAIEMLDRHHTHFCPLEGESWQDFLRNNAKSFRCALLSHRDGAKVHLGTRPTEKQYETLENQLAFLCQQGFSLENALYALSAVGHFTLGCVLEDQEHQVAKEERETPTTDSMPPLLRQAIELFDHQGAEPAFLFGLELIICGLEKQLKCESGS

| Sequence | TetR repression strength |
| --- | --- |
| TCCCGCGCAGTAAGAGAGA | 0.255 |
| TCCCCTAGAGTATAGGAGA | 0.231 |
| TCCCCGGCAGTGGTTGAGA | 0.18 |
| TCCCCACAAGTTCTCGAGA | 0.306 |
| TCCCTGGAAGTAGGTGAGA | 0.313 |
| TCCCCGGAAGTAGAGGAGA | 0.157 |
| TCCCGAGCAGTTCGTGAGA | 0.378 |
| TCCCCTTCAGTTCAGGAGA | 0.182 |
| TCCCGGTGAGTATCCGAGA | 0.198 |
| TCCCCGACAGTGAGTGAGA | 0.104 |
| TCCCGTTAAGTACGCGAGA | 0.128 |
| TCCCATATAGTTGGTGAGA | 0.292 |
| TCCCTATCAGTTTGTGAGA | 0.584 |
| TCCCGGTCAGTGTAAGAGA | 0.436 |
| TCCCGGACAGTTTTAGAGA | 0.0972 |
| TCCCCTGAAGTTGGCGAGA | 0.226 |
| TCCCAATCAGTGGGAGAGA | 0.389 |
| TCCCTCGTAGTGCGCGAGA | 0.366 |
| TCCCAGTGAGTCTGCGAGA | 0.0614 |
| TCCCATAGAGTAGTGGAGA | 0.407 |
| TCCCACCCAGTTCGCGAGA | 0.0727 |
| TCCCTCCGAGTTGCAGAGA | 0.553 |
| TCCCCGAAAGTGTAAGAGA | 0.482 |
| TCCCATACAGTTGTTGAGA | 0.0901 |
| TCCCCTACAGTGTGTGAGA | 0.118 |
| TCCCATGGAGTTTTGGAGA | 0.377 |

| Sequence | TetR repression strength |
| --- | --- |
| TCCCTCCCAGTGGGAGAGA | 0.334 |
| TCCCTAAGAGTCGAGGAGA | 0.181 |
| TCCCTCCCAGTCTAGGAGA | 0.263 |
| TCCCGATGAGTGTCGGAGA | 0.196 |
| TCCCTAACAGTGAAAGAGA | 0.575 |
| TCCCTCGAAGTAGGGGAGA | 0.154 |
| TCCCTGGAAGTGCGGGAGA | 0.16 |
| TCCCCATCAGTGGAAGAGA | 0.202 |
| TCCCCTCAAGTTGAGGAGA | 0.293 |
| TCCCTTAAAGTATGGGAGA | 0.267 |
| TCCCCAGGAGTTGATGAGA | 0.166 |
| TCCCAGCGAGTGCGCGAGA | 0.0707 |
| TCCCCGTTAGTTCTGGAGA | 0.153 |
| TCCCTTCGAGTGCGAGAGA | 0.211 |
| TCCCTGCGAGTTCAAGAGA | 0.418 |
| TCCCAGTCAGTTTGCGAGA | 0.167 |
| TCCCGAACAGTTGAAGAGA | 0.322 |
| TCCCGTTTAGTCCTGGAGA | 0.207 |
| TCCCGGTCAGTGGATGAGA | 0.353 |
| TCCCCTCGAGTGAACGAGA | 0.0653 |
| TCCCGGCGAGTGCGGGAGA | 0.254 |
| TCCCGAGGAGTGAACGAGA | 0.208 |
| TCCCGCTCAGTCAGAGAGA | 0.295 |
| TCCCCGGGAGTAGCCGAGA | 0.207 |
| TCCCAAACAGTGGTAGAGA | 0.443 |
| TCCCAGTCAGTGGGGGAGA | 0.19 |

| Sequence | TetR repression strength |
| --- | --- |
| TCCCACGTAGTGTGCGAGA | 0.301 |
| TCCCAAAGAGTATTCGAGA | 0.0485 |
| TCCCTATCAGTACTCGAGA | 0.577 |
| TCCCGTTCAGTGGATGAGA | 0.599 |
| TCCCAACAAGTCATCGAGA | 0.337 |
| TCCCGGCTAGTTGTGGAGA | 0.234 |
| TCCCGGCAAGTTATTGAGA | 0.46 |
| TCCCGCACAGTCCTAGAGA | 0.351 |
| TCCCTGTGAGTAATGGAGA | 0.0647 |
| TCCCTTATAGTTGTGGAGA | 0.148 |
| TCCCGTCGAGTTGGTGAGA | 0.177 |
| TCCCTCTTAGTTCAGGAGA | 0.158 |
| TCCCTTAAAGTGTATGAGA | 0.211 |
| TCCCTTGTAGTCGACGAGA | 0.275 |
| TCCCCGTAAGTCTCCGAGA | 0.229 |
| TCCCTTTAAGTATTCGAGA | 0.122 |
| TCCCATTGAGTCAGGGAGA | 0.0363 |
| TCCCGCAGAGTGGAGGAGA | 0.186 |
| TCCCGATTAGTAAGGGAGA | 0.207 |
| TCCCATTAAGTGAATGAGA | 0.247 |
| TCCCTCTAAGTGGACGAGA | 0.438 |
| TCCCTGCAAGTTTTGGAGA | 0.155 |
| TCCCCGTAAGTGGGAGAGA | 0.326 |
| TCCCAAAGAGTCGCTGAGA | 0.222 |
| TCCCAGTAAGTGTGGGAGA | 0.231 |
| TCCCTGTAAGTGCCAGAGA | 0.259 |

| Sequence | TetR repression strength |
| --- | --- |
| TCCCGTGCAGTTGTCGAGA | 0.193 |
| TCCCTGTGAGTCTAGGAGA | 0.116 |
| TCCCGCGTAGTTAGCGAGA | 0.304 |
| TCCCAATCAGTGGCAGAGA | 0.433 |
| TCCCGCGTAGTGGCCGAGA | 0.226 |
| TCCCAACTAGTCATCGAGA | 0.434 |
| TCCCGGTCAGTGGTAGAGA | 0.435 |
| TCCCTTGAAGTGTTCGAGA | 0.0498 |
| TCCCATGCAGTGTATGAGA | 0.128 |
| TCCCCGGGAGTTCAAGAGA | 0.362 |
| TCCCAACTAGTGAGTGAGA | 0.325 |
| TCCCGTGTAGTGGAGGAGA | 0.326 |
| TCCCTACGAGTTAGTGAGA | 0.207 |
| TCCCCACCAGTAGTGGAGA | 0.268 |
| TCCCAGCAAGTATGCGAGA | 0.282 |
| TCCCTAGCAGTGCGCGAGA | 0.203 |
| TCCCTAAAAGTGGAAGAGA | 0.104 |
| TCCCGGGGAGTAGGTGAGA | 0.194 |
| TCCCAGGCAGTGGCGGAGA | 0.204 |
| TCCCTATCAGTTCTTGAGA | 0.539 |
| TCCCGTTTAGTGGCAGAGA | 0.248 |
| TCCCATACAGTGTTCGAGA | 0.296 |
| TCCCCTGGAGTTAGCGAGA | 0.281 |
| TCCCATAAAGTTGCAGAGA | 0.337 |
